Measurements taken from paper PMC8985225.

Molecular target: Ca^2+/CaM-dependent kinase II α (CaMKIIα) holoenzyme (rodent) (UniProt P11275)
Experiment: negative-stain single-particle EM; purified holoenzymes diluted in 50 mM HEPES pH 7.4, 120 mM KCl, 0.5 mM EGTA (~0.35 μM), stained with uranyl formate; basal state; focused reference-free 2D classification of the hub domain (15 nm mask, no symmetry applied); stoichiometry of the holoenzyme

percent of holoenzyme particles that are 12-mers: 88% | percent of holoenzyme particles that are 14-mers: 5.2% | stoichiometry N: 12 and 14
Substance: Ca^2+/CaM-dependent kinase II α (CaMKIIα) holoenzyme (a stretch of the chain, letters omitted) (enzyme; other documents disagree on this pair)

“And” between values parts separate entries of the source, which are not always exact repeats. Equal values may be shown once.
